Out of some 50,000 compounds screened, about 800 (1.6%) showed an effect of 50% or more. The list shows a part of the results.
What follows are molecules tested against Bcl-2-like protein 10 (Homo sapiens) (UniProt Q9HD36) (assay: TR3 peptide-Bcl-B binding displacers, biochemical primary FP assay, phenotype converters (AID 1240;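 note: 0% = Bcl-B with tracer peptide and DMSO and 100% = tracer peptide lacking Bcl-B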)). Conditions: GST-Bcl-B / FITC-TR3 peptide fluorescence polarization; stronger effect = higher value; compound at 3.75 mg/L.
Chain of UniProt Q9HD36 (Q9HD36 whole entry, looked up): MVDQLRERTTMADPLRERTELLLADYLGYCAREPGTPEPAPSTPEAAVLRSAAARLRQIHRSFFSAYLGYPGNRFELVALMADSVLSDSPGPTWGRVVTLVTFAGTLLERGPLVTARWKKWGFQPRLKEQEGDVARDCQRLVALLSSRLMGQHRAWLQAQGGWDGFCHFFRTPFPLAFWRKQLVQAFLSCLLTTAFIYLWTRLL

SMILES	displacement [%]
O=C(NN1CCOCC1)NC12CC3CC(CC(C3)C1)C2	-1
O=C(CSc1nc2ccc([N+](=O)[O-])cc2[nH]1)Nc1ccc2c(c1)OCO2	9.2
O=C(O)c1nn2c(c1Cl)NC(c1ccccc1)CC2C(F)(F)F (stereo not drawn)	-2.8
CCOc1ccccc1NC(=O)COc1ccccc1Cl	7
Cc1cccc(C(=O)N2N=C(c3ccc(F)cc3)CC2(O)C(F)(F)F)c1 (stereo not drawn)	7.7
C/C(=N\NC(=O)C(C)Sc1nc(C)cc(C)n1)c1ccccc1O (stereo not drawn)	-3
CCOC(=O)CCc1c(C)nc2cc(-c3cccc(C)c3)[nH]n2c1=O	10.4
O=C(Nc1ccc(Cl)c(Cl)c1)C(c1ccccc1)c1ccccc1	15.4
O=C(O)c1ccccc1-c1ccccc1C(=O)Nc1c[nH]c(=O)[nH]c1=O	-1.9
COC(=O)C(CC(C)C)NC(=O)CSc1nnc2c(n1)[nH]c1ccccc12 (stereo not drawn)	12.2
CCOc1cc(OCC)cc(C(=O)Nc2ccc(Br)cc2)c1	8.2
Cc1ccc(/C=C2/SC(=O)N(CNc3cccc(C)c3)C2=O)cc1	-7.7
O=C1CC(c2ccc(Cl)cc2)CC2=C1C(c1ccc3c(c1)OCO3)Nc1ccccc1N2 (stereo not drawn)	13.1
CC(=O)C12c3ccccc3C(c3ccccc31)C1C(=O)N(c3cccc(C(F)(F)F)c3)C(=O)C12 (stereo not drawn)	4.5
CCC(C)(C)C1CCc2c(sc(NC(=O)CCCC(=O)O)c2C(N)=O)C1 (stereo not drawn)	-24.8
O=C(NC(=S)Nc1ccccc1Cl)c1cccnc1	-1.1
O=C(Nc1cc(C(F)(F)F)cc(C(F)(F)F)c1)c1ccco1	4.1
O=C(NC(=S)Nc1ccc(S(=O)(=O)Nc2nccs2)cc1)c1sc2ccccc2c1Cl	9.6
CCOC(=O)c1c(NC(=O)c2ccccc2OCC)sc2c1CCCC2	6.3
COc1cc2ccccc2cc1C(=O)NCCCNc1ccc([N+](=O)[O-])cc1	1.1
Cc1[nH]n(-c2ccccc2)c(=O)c1C=Nc1ccccc1Cl	10.5
CCN(CC)C(=O)c1cc(-c2ccc(C)cc2)nc2ccccc12	10.5
O=C1CC(NCc2cccs2)C(=O)N1c1ccc(Cl)cc1 (stereo not drawn)	-5.8
CCN(CC)c1ccc(NC(=O)c2ccc(C)c([N+](=O)[O-])c2)cc1	4.6
Cc1ccc(N)cc1NC(=O)c1ccccc1	12.4
CC1CCN(C(=O)c2ccc3nc4c5ccccc5c5ccccc5c4nc3c2)CC1	8.7
O=C1C(Cl)=C(NCc2ccccc2)C(=O)N1c1cccc(Cl)c1Cl	9.2

SMILES	displacement [%]
CC(C)(C)c1ccc(-c2cc(N)n(-c3ccccc3)n2)cc1	-4.1
O=C(Nc1cccc(Br)c1)C1C2CC/C=C\CCC21 (stereo not drawn)	1.8
COc1ccc(C2(CNC(=O)/C=C/c3ccccc3)CCCC2)cc1OC	1.6
O=C(O)/C=C/C(=O)Nc1ccc(Oc2ccc(Oc3ccc(NC(=O)/C=C/C(=O)O)cc3)cc2)cc1	-5.4
CCOc1cc(/C=C2\C(=O)ON=C2C)ccc1O	8.8
O=C(Nc1ccc(OC(F)(F)F)cc1)C(c1ccccc1)c1ccccc1	8.4
NC(=O)C1(N2CCCCC2)CCN(C2CC(=O)N(c3ccc(Br)cc3)C2=O)CC1 (stereo not drawn)	-5.8
Clc1ccc(OCCCCN2CCCC2)cc1	11.1
COc1cccc(C(O)c2nc3ccccc3n2C(C)C)c1 (stereo not drawn)	-5.4
O=c1c2ccccc2nc(/C=C/c2ccc3c(c2)OCO3)n1-c1cccc2ccccc12	78.1
Brc1ccc(OCCCN2CCCC2)cc1	-3.3
O=C(CN(c1ccc(Br)cc1)S(=O)(=O)c1ccccc1)NCCSc1nc2ccccc2s1	10.7
O=C1NC(=O)N(c2ccc(Cl)cc2)C(=O)/C1=C/c1ccc(-c2ccccc2C(=O)O)o1	7.7
Cc1ccc(OCC(=O)NCc2ccccn2)c(C)c1	-3.8
O=C(CN(c1ccccc1)S(=O)(=O)c1ccccc1)NCc1ccccn1	-11.6
CC(=O)Nc1cccc(NC(=O)c2cc(-c3ccccc3)nc3ccccc23)c1	16.7
Cc1oc2cc(OCC(=O)OCc3ccccc3)ccc2c(=O)c1-c1nc2ccccc2s1	11.3
COc1ccc(NC(=O)COc2cccc(C)c2)c([N+](=O)[O-])c1	-1
CC(C)(C)c1ccc(-c2nc3cc(NC(=S)NC(=O)c4ccco4)ccc3o2)cc1	9.2
COc1ccc2c(c1)C(C)CC(C)(C)N2C(=O)NC1CCCCC1 (stereo not drawn)	8
CCOc1ccc(-n2sc3c(c2=S)-c2cc(C)cc(C)c2NC3(C)C)cc1	-3.8
O=C(/C=C/Nc1ccccc1O)c1ccc(-c2ccccc2)cc1	3.7
Cc1ccc(/C=N/NC(=O)COc2c(Br)cc(Br)cc2Br)cc1	1.8
COc1ccccc1NC(=O)C1=C(C)NC(=O)NC1c1cc(OC)c(OC)c(OC)c1 (stereo not drawn)	3.6
O=C(c1nn2c(c1Cl)NC(c1ccc(Cl)cc1)CC2C(F)(F)F)N1CCN(c2ccccc2)CC1 (stereo not drawn)	39.1
COc1ccccc1NC(=O)/C(=C/c1ccco1)NC(=O)c1ccc(C)cc1	-5
